The full ranking holds about 2,900 compounds; the median of “NF-kB SEAP reporter activity, fold change vs agonist alone” is about 0.99, and the highest 2% start at about 2.6. The list shows a part of the results.
Columns and labels:
[1] = test system: RAW-Dual; experiment: NF-kB SEAP reporter activity, fold change vs agonist alone; cytotoxicity flag (confluency mask): not cytotoxic; higher = enhanced NF-kB activity
In short: (§1)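 Library stock was pin-tooled at 50 nL into 384-well plates of RAW-Dual macrophages (50,000 cells/well, DMEM), followed 1 h later by a PRR agonist, and the cells were kept at 37 °C, 5% CO2. Supernatant collected after 20 hours was read for IRF by QuantiLuc luminescence and for NF-κB by QuantiBlue absorbance at 620 nm. Reporter activity is fold change over agonist-alone wells, and a well counted as cytotoxic when its IncuCyte confluency was below 70% of agonist controls in both mask sets.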

[2] = test system: RAW-Dual; experiment: NF-kB SEAP reporter activity, fold change vs agonist alone; higher = enhanced NF-kB activity; details: library stock concentration (final ~1000-fold dilution): 10 mM, cytotoxicity flag (confluency mask): not cytotoxic
In short: as §1

[3] = agonist: ODN 1826 (TLR9) 0.5 ug/mL
[4] = agonist: Pam2CSK4 (TLR2/6) 0.1 ug/mL
[5] = agonist: Pam3CSK4 (TLR2/1) 0.1 ug/mL

CC1(C)OC2COC3(COS(N)(=O)=O)OC(C)(C)OC3C2O1 (stereo not given) (library stock concentration (final ~1000-fold dilution): 10 mM)
NF-kB SEAP reporter activity ([1]; agonist: LPS (TLR4) 0.1 ug/mL): 0.898
NF-kB SEAP reporter activity [1, 3]: 1.01
NF-kB SEAP reporter activity [1, 4]: 0.955
NF-kB SEAP reporter activity [1, 5]: 1.12

CC1(C)OC2COC3(COS(N)(=O)=O)OC(C)(C)OC3C2O1 (stereo not given)
NF-kB SEAP reporter activity ([2]; agonist: Imiquimod (TLR7) […]): 0.928
NF-kB SEAP reporter activity ([2]; agonist: MPLA (TLR4) […]): 0.824

Cc1cccc(C)c1N(CC(=O)Nc1ccc(-c2ncon2)cc1)C(=O)C1CCS(=O)(=O)CC1
NF-kB SEAP reporter activity ([2]; agonist: Imiquimod (TLR7) […]): 0.957
NF-kB SEAP reporter activity ([2]; agonist: MPLA (TLR4) […]): 1.04

Cc1cccc(C)c1N(CC(=O)Nc1ccc(-c2ncon2)cc1)C(=O)C1CCS(=O)(=O)CC1 (library stock concentration (final ~1000-fold dilution): 10 mM)
NF-kB SEAP reporter activity ([1]; agonist: LPS (TLR4) 0.1 ug/mL): 1.13
NF-kB SEAP reporter activity [1, 3]: 1.03
NF-kB SEAP reporter activity [1, 4]: 1.06
NF-kB SEAP reporter activity [1, 5]: 1.02

COc1ccc(/C=C\c2cc(OC)c(OC)c(OC)c2)cc1O
NF-kB SEAP reporter activity ([2]; agonist: Imiquimod (TLR7) […]): 1.63
NF-kB SEAP reporter activity ([2]; agonist: MPLA (TLR4) […]): 2.07

COc1ccc(/C=C\c2cc(OC)c(OC)c(OC)c2)cc1O (library stock concentration (final ~1000-fold dilution): 10 mM)
NF-kB SEAP reporter activity ([1]; agonist: LPS (TLR4) 0.1 ug/mL): 4.68
NF-kB SEAP reporter activity [1, 3]: 2.84
NF-kB SEAP reporter activity [1, 4]: 1.69
NF-kB SEAP reporter activity [1, 5]: 2.62

O=C(c1ccccc1)C(O)O
NF-kB SEAP reporter activity ([2]; agonist: MPLA (TLR4) […]): 1.19

O=C(c1ccccc1)C(O)O (library stock concentration (final ~1000-fold dilution): 10 mM)
NF-kB SEAP reporter activity ([1]; agonist: LPS (TLR4) 0.1 ug/mL): 1.12
NF-kB SEAP reporter activity [1, 3]: 1.04
NF-kB SEAP reporter activity [1, 4]: 1.14
NF-kB SEAP reporter activity [1, 5]: 1.07

C=CC(=O)Nc1ccc2ncnc(Nc3ccc(OCc4cccc(F)c4)c(Cl)c3)c2c1.Cc1ccc(S(=O)(=O)O)cc1 (library stock concentration (final ~1000-fold dilution): 10 mM)
NF-kB SEAP reporter activity ([1]; agonist: LPS (TLR4) 0.1 ug/mL): 0.275
NF-kB SEAP reporter activity [1, 3]: 0.575
NF-kB SEAP reporter activity [1, 4]: 0.254
NF-kB SEAP reporter activity [1, 5]: 0.377

C=CC(=O)Nc1ccc2ncnc(Nc3ccc(OCc4cccc(F)c4)c(Cl)c3)c2c1.Cc1ccc(S(=O)(=O)O)cc1
NF-kB SEAP reporter activity ([2]; agonist: Imiquimod (TLR7) […]): 0.818
NF-kB SEAP reporter activity ([2]; agonist: MPLA (TLR4) […]): 0.445

COc1cc(C(C)=O)ccc1OCCCN1CCC(c2noc3cc(F)ccc23)CC1 (library stock concentration (final ~1000-fold dilution): 10 mM)
NF-kB SEAP reporter activity ([1]; agonist: LPS (TLR4) 0.1 ug/mL): 1.15
NF-kB SEAP reporter activity [1, 3]: 0.717
NF-kB SEAP reporter activity [1, 4]: 1.13
NF-kB SEAP reporter activity [1, 5]: 0.978

COc1cc(C(C)=O)ccc1OCCCN1CCC(c2noc3cc(F)ccc23)CC1
NF-kB SEAP reporter activity ([2]; agonist: Imiquimod (TLR7) […]): 0.951
NF-kB SEAP reporter activity ([2]; agonist: MPLA (TLR4) […]): 0.853

Cn1c(=O)c(Oc2ccc(F)cc2F)cc2cnc(NC(CCO)CCO)nc21 (library stock concentration (final ~1000-fold dilution): 10 mM)
NF-kB SEAP reporter activity ([1]; agonist: LPS (TLR4) 0.1 ug/mL): 0.812
NF-kB SEAP reporter activity [1, 3]: 0.639
NF-kB SEAP reporter activity [1, 4]: 0.288
NF-kB SEAP reporter activity [1, 5]: 0.329

Cn1c(=O)c(Oc2ccc(F)cc2F)cc2cnc(NC(CCO)CCO)nc21
NF-kB SEAP reporter activity ([2]; agonist: Imiquimod (TLR7) […]): 0.559
NF-kB SEAP reporter activity ([2]; agonist: MPLA (TLR4) […]): 0.805

O=C(O)Cc1ccc(O)cc1
NF-kB SEAP reporter activity ([2]; agonist: Imiquimod (TLR7) […]): 1.24
NF-kB SEAP reporter activity ([2]; agonist: MPLA (TLR4) […]): 1.06

O=C(O)Cc1ccc(O)cc1 (library stock concentration (final ~1000-fold dilution): 10 mM)
NF-kB SEAP reporter activity ([1]; agonist: LPS (TLR4) 0.1 ug/mL): 1.18
NF-kB SEAP reporter activity [1, 3]: 1.08
NF-kB SEAP reporter activity [1, 4]: 1.08
NF-kB SEAP reporter activity [1, 5]: 0.947

CC(C(=O)O)c1cccc(C(=O)c2ccccc2)c1 (stereo not given)
NF-kB SEAP reporter activity ([2]; agonist: Imiquimod (TLR7) […]): 0.866
NF-kB SEAP reporter activity ([2]; agonist: MPLA (TLR4) […]): 1.05

CC(C(=O)O)c1cccc(C(=O)c2ccccc2)c1 (stereo not given) (library stock concentration (final ~1000-fold dilution): 10 mM)
NF-kB SEAP reporter activity ([1]; agonist: LPS (TLR4) 0.1 ug/mL): 1.02
NF-kB SEAP reporter activity [1, 3]: 1.01
NF-kB SEAP reporter activity [1, 4]: 1.11
NF-kB SEAP reporter activity [1, 5]: 1.19

COc1cc2nc(N3CCN(C(=O)C4CCCO4)CC3)nc(N)c2cc1OC.Cl (stereo not given) (library stock concentration (final ~1000-fold dilution): 10 mM)
NF-kB SEAP reporter activity ([1]; agonist: LPS (TLR4) 0.1 ug/mL): 1
NF-kB SEAP reporter activity [1, 3]: 1.02
NF-kB SEAP reporter activity [1, 4]: 1.09
NF-kB SEAP reporter activity [1, 5]: 1.19

COc1cc2nc(N3CCN(C(=O)C4CCCO4)CC3)nc(N)c2cc1OC.Cl (stereo not given)
NF-kB SEAP reporter activity ([2]; agonist: MPLA (TLR4) […]): 1.02

CCCCN(Cc1ccc(C(=O)NO)cc1)C(=O)Nc1ccccc1 (library stock concentration (final ~1000-fold dilution): 10 mM)
NF-kB SEAP reporter activity ([1]; agonist: LPS (TLR4) 0.1 ug/mL): 6.63
NF-kB SEAP reporter activity [1, 3]: 2.5
NF-kB SEAP reporter activity [1, 4]: 1.18
NF-kB SEAP reporter activity [1, 5]: 1.73

CCCCN(Cc1ccc(C(=O)NO)cc1)C(=O)Nc1ccccc1
NF-kB SEAP reporter activity ([2]; agonist: Imiquimod (TLR7) […]): 1.52
NF-kB SEAP reporter activity ([2]; agonist: MPLA (TLR4) […]): 2.9

Cn1c(=O)cc(C(=O)Nc2ccc3c(c2)OCCO3)c2ccccc21 (library stock concentration (final ~1000-fold dilution): 10 mM)
NF-kB SEAP reporter activity ([1]; agonist: LPS (TLR4) 0.1 ug/mL): 0.989
NF-kB SEAP reporter activity [1, 3]: 1.02
NF-kB SEAP reporter activity [1, 4]: 0.995
NF-kB SEAP reporter activity [1, 5]: 1.07

Cn1c(=O)cc(C(=O)Nc2ccc3c(c2)OCCO3)c2ccccc21
NF-kB SEAP reporter activity ([2]; agonist: Imiquimod (TLR7) […]): 0.997
NF-kB SEAP reporter activity ([2]; agonist: MPLA (TLR4) […]): 0.999

O=C(O)c1ccc(CSc2nc(-c3ccccc3)cc(N3CCN(c4ccccc4Cl)CC3)n2)cc1 (library stock concentration (final ~1000-fold dilution): 10 mM)
NF-kB SEAP reporter activity ([1]; agonist: LPS (TLR4) 0.1 ug/mL): 0.736
NF-kB SEAP reporter activity [1, 3]: 0.584
NF-kB SEAP reporter activity [1, 4]: 0.248
NF-kB SEAP reporter activity [1, 5]: 0.392

O=C(O)c1ccc(CSc2nc(-c3ccccc3)cc(N3CCN(c4ccccc4Cl)CC3)n2)cc1
NF-kB SEAP reporter activity ([2]; agonist: Imiquimod (TLR7) […]): 0.515
NF-kB SEAP reporter activity ([2]; agonist: MPLA (TLR4) […]): 0.868

CNC(=O)c1ccccc1Nc1nc(Nc2ccc(N3CCOCC3)cc2OC)ncc1Cl (library stock concentration (final ~1000-fold dilution): 10 mM)
NF-kB SEAP reporter activity ([1]; agonist: LPS (TLR4) 0.1 ug/mL): 0.332
NF-kB SEAP reporter activity [1, 3]: 0.296
NF-kB SEAP reporter activity [1, 4]: 0.134
NF-kB SEAP reporter activity [1, 5]: 0.246

Source: the supplement of paper PMC10037445
